Data as given in patent US11000038B2, “Pyridone compounds and agricultural and horticultural fungicides containing the same as active ingredients” (priority 2017, dated 2021).

What was measured:
[1] = tested on: tomato late blight fungi (Phytophthora infestans); type: in vivo; settings: tomato late blight, spray treatment
[2] = tested on: cucumber anthracnose fungi (Colletotrichum orbiculare); assay: Test Example H: cucumber anthracnose, spray treatment of cucumber plants; settings: cucumber anthracnose, 250 ppm spray, 6 to 10 days after inoculation
[3] = tested on: rice blast fungi (Magnaporthe grisea); type: in vivo; settings: rice blast, spray treatment

For Cc1cccc(Cl)c1-n1cc(Br)c(=O)c(Cl)c1-c1ccc(F)cc1 [Compound 379], the “Test F control value” [1] was “L (L shows the control value of 50% or less)”, the “Test H control value” [2] was “L (L shows the control value of 50% or less)” and the “Test A control value” [3] was “H (H shows the control value of more than 50%)”.
Cc1cccc(Cl)c1-n1cc(Br)c(=O)c(Br)c1-c1ccc(F)cc1 [Compound 380] was tested, and the “Test F control value” [1] was “L (L shows the control value of 50% or less)”, the “Test H control value” [2] was “L (L shows the control value of 50% or less)” and the “Test A control value” [3] was “H (H shows the control value of more than 50%)”.
With Cc1cccc(Cl)c1-n1cc(Cl)c(=O)c(Br)c1-c1ccc(F)cc1 [Compound 381] the “Test F control value” [1] was “L (L shows the control value of 50% or less)”, the “Test H control value” [2] was “L (L shows the control value of 50% or less)” and the “Test A control value” [3] was “H (H shows the control value of more than 50%)”.
For Cc1cccc(Cl)c1-n1cc(Cl)c(=O)c(Cl)c1-c1ccc(F)cc1 [Compound 382], the “Test F control value” [1] was “L (L shows the control value of 50% or less)”, the “Test H control value” [2] was “H (H shows the control value of more than 50%)” and the “Test A control value” [3] was “H (H shows the control value of more than 50%)”.
COc1ccc(C)c(-n2cc(C)c(=O)c(C)c2-c2c(F)cccc2F)c1 [Compound 383] was tested, and the “Test F control value” [1] was “L (L shows the control value of 50% or less)”, the “Test H control value” [2] was “H (H shows the control value of more than 50%)” and the “Test A control value” [3] was “H (H shows the control value of more than 50%)”.
In the case of COc1cc(-n2cc(Br)c(=O)c(Br)c2-c2c(F)cccc2F)c(C)cc1Br [Compound 384], the “Test F control value” [1] is reported as “L (L shows the control value of 50% or less)”, the “Test H control value” [2] is reported as “H (H shows the control value of more than 50%)” and the “Test A control value” [3] is reported as “H (H shows the control value of more than 50%)”.
In the case of COc1ccc(C)c(-n2cc(Br)c(=O)c(Br)c2-c2c(F)cccc2F)c1 [Compound 385], the “Test F control value” [1] is reported as “L (L shows the control value of 50% or less)”, the “Test H control value” [2] is reported as “H (H shows the control value of more than 50%)” and the “Test A control value” [3] is reported as “H (H shows the control value of more than 50%)”.
Cc1c(-c2ccccc2)n(-c2ccc(Br)cc2Cl)cc(Br)c1=O [Compound 386] was tested, and the “Test F control value” [1] was “L (L shows the control value of 50% or less)”, the “Test H control value” [2] was “H (H shows the control value of more than 50%)” and the “Test A control value” [3] was “H (H shows the control value of more than 50%)”.
In the case of Cc1c(-c2ccccc2)n(-c2ccccc2Cl)cc(Br)c1=O [Compound 387], the “Test F control value” [1] is reported as “L (L shows the control value of 50% or less)”, the “Test H control value” [2] is reported as “H (H shows the control value of more than 50%)” and the “Test A control value” [3] is reported as “H (H shows the control value of more than 50%)”.
With O=c1c(Br)cn(-c2ccccc2Cl)c(-c2ccccc2)c1Cl [Compound 388] the “Test F control value” [1] was “L (L shows the control value of 50% or less)”, the “Test H control value” [2] was “H (H shows the control value of more than 50%)” and the “Test A control value” [3] was “H (H shows the control value of more than 50%)”.
In the case of Cc1ccc(F)cc1-n1cc(C)c(=O)c(C)c1-c1ccccc1 [Compound 389], the “Test F control value” [1] is reported as “L (L shows the control value of 50% or less)”, the “Test H control value” [2] is reported as “H (H shows the control value of more than 50%)” and the “Test A control value” [3] is reported as “L (L shows the control value of 50% or less)”.
With Cc1ccc(C)c(-n2cc(C)c(=O)c(C)c2-c2c(F)cc(F)cc2F)c1 [Compound 390] the “Test F control value” [1] was “L (L shows the control value of 50% or less)”, the “Test H control value” [2] was “H (H shows the control value of more than 50%)” and the “Test A control value” [3] was “H (H shows the control value of more than 50%)”.
COc1cc(-n2cc(Br)c(=O)c(Cl)c2-c2c(F)cccc2F)c(C)cc1Br [Compound 391] was tested, and the “Test F control value” [1] was “L (L shows the control value of 50% or less)”, the “Test H control value” [2] was “H (H shows the control value of more than 50%)” and the “Test A control value” [3] was “H (H shows the control value of more than 50%)”.
COc1ccc(C)c(-n2cc(Br)c(=O)c(Cl)c2-c2c(F)cccc2F)c1 [Compound 392] was tested, and the “Test F control value” [1] was “L (L shows the control value of 50% or less)”, the “Test H control value” [2] was “H (H shows the control value of more than 50%)” and the “Test A control value” [3] was “H (H shows the control value of more than 50%)”.
CC(C)c1ccccc1-n1cc(Br)c(=O)c(Cl)c1-c1c(F)cc(F)cc1F [Compound 393] was tested, and the “Test F control value” [1] was “L (L shows the control value of 50% or less)”, the “Test H control value” [2] was “H (H shows the control value of more than 50%)” and the “Test A control value” [3] was “H (H shows the control value of more than 50%)”.
In the case of CC(C)c1ccccc1-n1cc(Br)c(=O)c(Br)c1-c1c(F)cc(F)cc1F [Compound 394], the “Test F control value” [1] is reported as “L (L shows the control value of 50% or less)”, the “Test H control value” [2] is reported as “H (H shows the control value of more than 50%)” and the “Test A control value” [3] is reported as “H (H shows the control value of more than 50%)”.
CC(C)c1ccccc1-n1cc(Cl)c(=O)c(Cl)c1-c1c(F)cc(F)cc1F [Compound 395] was tested, and the “Test F control value” [1] was “L (L shows the control value of 50% or less)”, the “Test H control value” [2] was “H (H shows the control value of more than 50%)” and the “Test A control value” [3] was “H (H shows the control value of more than 50%)”.
In the case of CC(C)c1ccccc1-n1cc(Cl)c(=O)c(Br)c1-c1c(F)cc(F)cc1F [Compound 396], the “Test F control value” [1] is reported as “L (L shows the control value of 50% or less)”, the “Test H control value” [2] is reported as “L (L shows the control value of 50% or less)” and the “Test A control value” [3] is reported as “H (H shows the control value of more than 50%)”.
For Cc1cn(-c2ccccc2C(C)C)c(-c2c(F)cc(F)cc2F)c(C)c1=O [Compound 397], the “Test F control value” [1] was “L (L shows the control value of 50% or less)”, the “Test H control value” [2] was “L (L shows the control value of 50% or less)” and the “Test A control value” [3] was “L (L shows the control value of 50% or less)”.
In the case of Cc1ccc(F)cc1-n1cc(Br)c(=O)c(C)c1-c1ccccc1 [Compound 398], the “Test F control value” [1] is reported as “L (L shows the control value of 50% or less)”, the “Test H control value” [2] is reported as “L (L shows the control value of 50% or less)” and the “Test A control value” [3] is reported as “H (H shows the control value of more than 50%)”.
With Cc1ccc(F)cc1-n1cc(Br)c(=O)c(Cl)c1-c1ccccc1 [Compound 399] the “Test F control value” [1] was “L (L shows the control value of 50% or less)”, the “Test H control value” [2] was “H (H shows the control value of more than 50%)” and the “Test A control value” [3] was “L (L shows the control value of 50% or less)”.
COc1ccc(C)c(-n2cc(Br)c(=O)c(C)c2-c2ccccc2)c1 [Compound 400] was tested, and the “Test F control value” [1] was “L (L shows the control value of 50% or less)”, the “Test H control value” [2] was “H (H shows the control value of more than 50%)” and the “Test A control value” [3] was “H (H shows the control value of more than 50%)”.
In the case of COc1cc(F)c(-c2c(C)c(=O)c(C)cn2-c2cc(C)ccc2C)c(F)c1 [Compound 401], the “Test F control value” [1] is reported as “L (L shows the control value of 50% or less)”, the “Test H control value” [2] is reported as “H (H shows the control value of more than 50%)” and the “Test A control value” [3] is reported as “H (H shows the control value of more than 50%)”.
With Cc1ccc(C)c(-n2cc(C)c(=O)c(C)c2-c2c(F)cccc2F)c1 [Compound 402] the “Test F control value” [1] was “L (L shows the control value of 50% or less)”, the “Test H control value” [2] was “L (L shows the control value of 50% or less)” and the “Test A control value” [3] was “L (L shows the control value of 50% or less)”.
For Cc1ccc(C)c(-n2cc(C)c(=O)c(C)c2-c2c(F)cc(O)cc2F)c1 [Compound 403], the “Test F control value” [1] was “L (L shows the control value of 50% or less)”, the “Test H control value” [2] was “L (L shows the control value of 50% or less)” and the “Test A control value” [3] was “L (L shows the control value of 50% or less)”.
In the case of Cc1ccc(C)c(-n2cc(C)c(=O)c(C)c2-c2ccccc2)c1 [Compound 404], the “Test F control value” [1] is reported as “L (L shows the control value of 50% or less)”, the “Test H control value” [2] is reported as “L (L shows the control value of 50% or less)” and the “Test A control value” [3] is reported as “L (L shows the control value of 50% or less)”.
With C=CCOc1cc(F)c(-c2c(C)c(=O)c(C)cn2-c2cc(C)ccc2C)c(F)c1 [Compound 405] the “Test F control value” [1] was “L (L shows the control value of 50% or less)”, the “Test H control value” [2] was “H (H shows the control value of more than 50%)” and the “Test A control value” [3] was “H (H shows the control value of more than 50%)”.
In the case of C#CCOc1cc(F)c(-c2c(C)c(=O)c(C)cn2-c2cc(C)ccc2C)c(F)c1 [Compound 406], the “Test F control value” [1] is reported as “H (H shows the control value of more than 50%)”, the “Test H control value” [2] is reported as “H (H shows the control value of more than 50%)” and the “Test A control value” [3] is reported as “L (L shows the control value of 50% or less)”.
In the case of CC(=O)Oc1cc(F)c(-c2c(C)c(=O)c(C)cn2-c2cc(C)ccc2C)c(F)c1 [Compound 407], the “Test F control value” [1] is reported as “L (L shows the control value of 50% or less)”, the “Test H control value” [2] is reported as “L (L shows the control value of 50% or less)” and the “Test A control value” [3] is reported as “L (L shows the control value of 50% or less)”.
In the case of Cc1ccc(-c2c(Br)c(=O)c(Br)cn2-c2ccccc2C)cc1 [Compound 408], the “Test F control value” [1] is reported as “L (L shows the control value of 50% or less)”, the “Test H control value” [2] is reported as “L (L shows the control value of 50% or less)” and the “Test A control value” [3] is reported as “L (L shows the control value of 50% or less)”.
With Cc1ccc(-c2c(Cl)c(=O)c(Br)cn2-c2ccccc2C)cc1 [Compound 409] the “Test F control value” [1] was “L (L shows the control value of 50% or less)”, the “Test H control value” [2] was “L (L shows the control value of 50% or less)” and the “Test A control value” [3] was “L (L shows the control value of 50% or less)”.
For Cc1ccc(-c2c(Br)c(=O)c(Cl)cn2-c2ccccc2C)cc1 [Compound 410], the “Test F control value” [1] was “L (L shows the control value of 50% or less)”, the “Test H control value” [2] was “L (L shows the control value of 50% or less)” and the “Test A control value” [3] was “L (L shows the control value of 50% or less)”.
For Cc1ccc(-c2c(Cl)c(=O)c(Cl)cn2-c2ccccc2C)cc1 [Compound 411], the “Test F control value” [1] was “L (L shows the control value of 50% or less)”, the “Test H control value” [2] was “L (L shows the control value of 50% or less)” and the “Test A control value” [3] was “L (L shows the control value of 50% or less)”.
